Data as given in publication PMC6716783, “Agonist-induced membrane nanodomain clustering drives GLP-1 receptor responses in pancreatic beta cells” (PLoS Biology, 2019).

Experiments:
[1] = molecular target: T1, SNAP-GLP-1R in INS-1 832/3 GLP-1R−/− cells (Homo sapiens, UniProt P43220); experiment: SNAP-GLP-1R clustering by TR-FRET (HTRF); type: cell-based
[2] = molecular target: T1, SNAP-GLP-1R in INS-1 832/3 GLP-1R−/− cells; experiment: TR-FRET ligand binding (equilibrium and kinetic)
[3] = molecular target: T1, SNAP-GLP-1R in INS-1 832/3 GLP-1R−/− cells; experiment: FITC-ligand uptake by TR-FRET; type: cell-based

T1 sequence (P43220 24-463): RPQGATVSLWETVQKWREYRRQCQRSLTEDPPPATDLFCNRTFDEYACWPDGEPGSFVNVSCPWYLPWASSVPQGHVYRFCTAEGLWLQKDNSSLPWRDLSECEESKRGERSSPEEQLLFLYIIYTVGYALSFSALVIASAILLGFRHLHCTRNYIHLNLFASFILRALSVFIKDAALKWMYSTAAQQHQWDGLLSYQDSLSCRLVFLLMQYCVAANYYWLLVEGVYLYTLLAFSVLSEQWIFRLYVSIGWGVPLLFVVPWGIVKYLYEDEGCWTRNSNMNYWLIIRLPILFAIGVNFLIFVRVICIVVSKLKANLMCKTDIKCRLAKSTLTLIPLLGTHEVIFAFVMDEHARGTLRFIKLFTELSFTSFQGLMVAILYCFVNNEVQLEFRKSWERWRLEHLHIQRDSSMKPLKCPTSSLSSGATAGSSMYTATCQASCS

Molecule | LogEC50 ([1]; Fig 2B, effect of MβCD concentration (45 min) on clustering induced by 100 nM exendin-4, log of MβCD concentration (mM), n=5) | effect on maximal exendin-4-induced clustering (in words) ([1]; MβCD pretreatment) | effect on agonist dissociation (in words) ([2]; MβCD 10 mM, 45 min, exendin-4-K12-FITC) | effect on binding affinity of exendin-4-K12-FITC (in words) ([2]; MβCD pretreatment) | remaining ligand uptake at maximal MβCD (in words) ([3]; Fig 2G and 2H) | LogEC50 ([3]; Fig 2G, effect of MβCD concentration on uptake of exendin-4-K12-FITC, log of MβCD concentration (mM), n=5) | SNAP-GLP-1R clustering, compound alone (in words) ([1]; BETP (10 μM) or exendin-phe1 (100 nM) alone)
methyl-β-cyclodextrin [MβCD] | 0.7 | reduced maximal exendin-4-induced GLP-1R clustering | faster agonist dissociation | reduced by MβCD in a dose-dependent manner | some remaining receptor-mediated agonist uptake detected even at maximal doses of MβCD | 0.6 | –
CC[S+]([O-])c1nc(-c2cccc(OCc3ccccc3)c2)cc(C(F)(F)F)n1 (stereo not shown) [BETP, 4-(3-benzyloxyphenyl)-2-ethylsulfinyl-6-(trifluoromethyl)pyrimidine] | – | – | – | – | – | – | marginal
